Laboratory results taken from the supplement of paper PMC6531468.
The other results are listed elsewhere or left out. These are enrichments in a pooled selection; single values are uncertain. Scores sum up all selected molecules that hold the word; the word was not tested alone.

What follows are sequences tested against IMP3 full-length (UniProt O00425) (assay: 6-mer SELEX enrichment z-score vs GST control; IMP3 is the RNA-binding protein IGF2BP3; higher = more enriched by binding). Settings: construct: FL IMP3 (1-579); SELEX round: R4.
Method: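 SELEX-seq with GST-tagged full-length IMP3 and an N40 RNA pool, round 4. Each 6-mer is scored as an enrichment z-score of sequence tags containing it, normalised to the matching GST SELEX round. RNA written as DNA (T = U).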

Chain of UniProt O00425 (O00425 whole entry): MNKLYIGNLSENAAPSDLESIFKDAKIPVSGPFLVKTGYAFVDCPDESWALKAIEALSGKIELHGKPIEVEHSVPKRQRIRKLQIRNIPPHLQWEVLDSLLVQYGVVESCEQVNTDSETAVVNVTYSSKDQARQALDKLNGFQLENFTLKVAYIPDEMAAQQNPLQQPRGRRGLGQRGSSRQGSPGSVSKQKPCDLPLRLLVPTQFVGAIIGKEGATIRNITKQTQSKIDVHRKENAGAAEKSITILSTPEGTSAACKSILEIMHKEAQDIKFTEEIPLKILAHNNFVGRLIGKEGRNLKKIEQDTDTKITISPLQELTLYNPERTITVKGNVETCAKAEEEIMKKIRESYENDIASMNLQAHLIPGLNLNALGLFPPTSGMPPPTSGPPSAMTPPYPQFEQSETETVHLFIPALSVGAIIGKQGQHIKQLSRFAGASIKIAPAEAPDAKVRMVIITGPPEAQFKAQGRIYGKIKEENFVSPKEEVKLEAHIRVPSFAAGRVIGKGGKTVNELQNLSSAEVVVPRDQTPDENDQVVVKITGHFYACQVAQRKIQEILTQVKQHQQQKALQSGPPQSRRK

Sequence	6-mer SELEX enrichment z-score
AATACA	1.72
TGGATT	0.002
CCGCTG	0.045
CTCGTG	-0.479
TGTTAC	-0.135
CGGCTC	0.947
TGCCCG	-0.853
ACATCT	0.665
CTCTTG	-0.288
AACGTC	-0.363
GCACCG	1.07
ACATAT	1.9
TAGTCA	0.206
GCAATC	0.905
ATAACA	1.82
GGGGGA	0.294

Sequence	6-mer SELEX enrichment z-score
GGCTGT	0.439
GCGACC	-0.11
GCACTA	0.827
TGAAGA	-0.713
ACATAA	2.24
ATCCGA	-0.973
TTCGAG	-0.595
TGAGCG	-3.62
CGATCC	-0.653
CGTTGA	-0.655
GTAACA	0.248
ACAATA	2.15
TCAAAC	0.122
AGATGT	-0.153
GAGCGG	0.391
CAGTTA	0.27

What follows are sequences tested on IMP3 KH1-2 in the same assay as above. Settings: construct: KH1-2 (164-376); SELEX round: R4.
Method: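 SELEX-seq with GST-tagged IMP3 KH1-2 (Pro164-Phe376) and an N40 RNA pool, round 4 (stringent 300/600 mM KCl washes). 6-mer z-score of sequence-tag enrichment normalised to the corresponding GST SELEX round; RNA k-mers written as DNA (T for U).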

Chain of IMP3 KH1-2 (chain, as listed by the source): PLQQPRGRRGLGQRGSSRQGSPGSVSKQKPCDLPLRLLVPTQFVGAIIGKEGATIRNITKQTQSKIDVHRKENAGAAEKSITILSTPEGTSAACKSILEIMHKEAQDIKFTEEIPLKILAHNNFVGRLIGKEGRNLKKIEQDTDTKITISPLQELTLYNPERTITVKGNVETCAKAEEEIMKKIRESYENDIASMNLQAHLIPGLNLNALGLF

Sequence	6-mer SELEX enrichment z-score
TGGATT	0.311
CCGCTG	0.337
CTCGTG	-0.858
TGTTAC	-0.013
TGCCCG	-1.2
ACATCT	0.123
CTCTTG	-0.555
AACGTC	-1.4
GCACCG	0.31
TAGTCA	-0.026
GGGGGA	1.62
GGCTGT	0.246
GCGACC	-0.871
GCACTA	0.814
ATCCGA	-1.33
TTCGAG	-1.22
CGTTGA	-0.897
GTAACA	-0.026
TCAAAC	-0.383
ACACAA	2.77
AGATGT	0.168
GAGCGG	-0.727
CAGTTA	0.385
CCGATT	-0.076

The sequences below were run on IMP3 KH3-4 in the same assay as above. Settings: construct: KH3-4 (377-579); SELEX round: R4.
Method: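 SELEX-seq with GST-tagged IMP3 KH3-4 (Pro377-Lys579) and an N40 RNA pool, round 4. 6-mer z-score of sequence-tag enrichment normalised to the corresponding GST SELEX round; RNA k-mers written as DNA (T for U).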

Chain of IMP3 KH3-4 (chain, as listed by the source): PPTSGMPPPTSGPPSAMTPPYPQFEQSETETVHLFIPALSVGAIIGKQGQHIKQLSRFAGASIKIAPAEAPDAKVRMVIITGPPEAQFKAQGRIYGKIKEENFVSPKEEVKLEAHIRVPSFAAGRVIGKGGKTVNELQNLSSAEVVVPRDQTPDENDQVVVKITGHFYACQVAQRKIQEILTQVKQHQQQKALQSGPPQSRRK

Sequence	6-mer SELEX enrichment z-score
CCGCTG	-0.31
ATCACA	1.48
GCACCG	-0.472
TGGAGC	-0.672
GGATTC	0.379
GCGACC	-1.35
GCACTA	0.973
GTCTTT	0.232
AGGCCT	0.039
ACACAA	1.28
CAGTTA	0.321
CCGATT	-0.34
